Experimental data published in US20240150489A1 (ICHNOS SCIENCES, published 2024).

Molecular target: T1, human SIRPα-ECD-Avi-His (human, UniProt P78324 31-352)
T1 construct: UniProt P78324-2; also called recombinant human SIRPα protein; human SIRPa
Assay: BLI (Octet), biotinylated human CD47-avi-his on streptavidin sensor, SIRPα at 2 µM, no Fab

B1: human CD47-ECD-Avi-His (receptor)
chain: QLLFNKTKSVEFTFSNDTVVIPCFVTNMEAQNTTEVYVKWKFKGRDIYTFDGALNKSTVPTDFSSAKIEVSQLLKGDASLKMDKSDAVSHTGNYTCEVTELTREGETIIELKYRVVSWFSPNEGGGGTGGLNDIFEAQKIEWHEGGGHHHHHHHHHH
notes: also called recombinant human CD47-avi-his protein; recombinant human CD47 protein
B1: binds.
